± gives the standard deviation of the averaged measurements. The list shows a part of the results.
System: PfAP2-EXP AP2 domain (GST-tagged)
Assay: gcPBM binding intensity (ln(normalized median fluorescence intensity)); higher = stronger DNA binding
Procedure, shortened: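 DNA-binding domains from P. falciparum, fused to GST and produced in E. coli, were put on an Agilent 4 × 180k double-stranded probe array for 1 h in 1× PBS holding 1% milk, 0.2 mg/ml BSA, 0.5% salmon testes DNA and 0.03% Triton X-100. Probes were primer-extended, 36 bp long and drawn from intergenic genomic regions, with negative controls included. After Alexa488 anti-GST antibody detection and a 488 nm scan, binding intensity was set as the highest Masliner-normalised natural-log median intensity across replicate spots of either probe orientation.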

Sequence	gcPBM binding intensity (ln)
TACATATAAATATATAAATATAAATAAATAAATAAA [XGTACX_negctrl_site180]	8.5 ± 0.24
TTTTTTTTTTTTTTTGCACACACATTGAATTATTAT [CACACA_site198]	8.45 ± 0.47
CTTTATATATAGTGTACACATTAAACAAATCTCAAT [CACACA_site5845]	8.7 ± 0.3
TTACCAAAAACCTCAAGTACAAAAAATCCCTAATAT [XGTACX_site2313]	8.49 ± 0.53
ATAGTATACAGACACACACACACACGGATATAAATA [CACACA_site6914]	8.89 ± 0.49
AAGTTTAAGAAATAATTCATATTTACTTCCATCCTC [GTGCAC_negctrl_site494]	8.23 ± 0.39
ATATATATATATATATGTACTAAATATTCATCCTTA [XGTACX_site6039]	10.2 ± 0.3
TATGTAAAAACAGGCACACATATATCATATATATAT [CACACA_site619]	9.525 ± 0.035
TATGTATGCCTGTTTTGTACTTAAGAAAATGTTGCT [XGTACX_site8443]	8.59 ± 0.38
AAAAAAAAAAAAAAAAGTACATAATATAAAATCTAA [XGTACX_site6019]	8.48 ± 0.4
TATAAATATATATGTACACACATATACATGTTGAAT [CACACA_site3118]	8.41 ± 0.26
TATAAACATAAATATACACACAAACATCTATGTATT [CACACA_site4804]	8.32 ± 0.42
AAAAAAAAATATCACACACACATAAATATAAACCAA [CACACA_site2279]	8.71 ± 0.48
AGGCACTTATAATAATGTACATAAATAAAAAGAAAA [XGTACX_site6037]	8.81 ± 0.35
ATTGGGTTCATCAGCACACACAACATCATGTAATAA [CACACA_site5093]	8.46 ± 0.53
AGAGCATAATAAAACACACACATACATACATATATA [CACACA_site935]	8.57 ± 0.55
AAAAAAAAAAAAACTACACACATAAAATATATTGTG [CACACA_site805]	8.19 ± 0.38
TAAAACATCAAGGGGTGTACAAAAAAGATGAACAGG [XGTACX_site6929]	9.1 ± 0.46
AAAAAAATAACAAAGTGTACTTTTATATTTTACATA [XGTACX_site8954]	8.13 ± 0.25
TTCTGCAGCAATGTTTTTTTTAAATATTTATATGGT [CACACA_negctrl_site1815]	8.76 ± 0.56
ACCCATTTTAATTTAGTGCACATTTTACCTTTATAC	9.19 ± 0.26
GCTAGTTTTTTTTGGCGTACAGTACCGGTTTACTTT [XGTACX_site2606]	9.1 ± 0.37

Sequence	gcPBM binding intensity (ln)
TTTTTTTCTTTTTCAAAAAAAAAAAAAAAAAAAATA [GTGCAC_negctrl_site329]	7.82 ± 0.5
CATACCATACATAAAACACACAAAATTTACATAATA [CACACA_site3100]	8.73 ± 0.42
TATAGTTTTATTATTTATGTGTTAAAATTATACAAG [TGCATGCA_negctrl_site246]	8.26 ± 0.53
TTCCTCTTAATATGTGCACACTAAATTATAACATAA [CACACA_site3260]	8.86 ± 0.22
AAAAAAAAAAAAAAATGTACATATTAAGTATAATTA [XGTACX_site4616]	8.38 ± 0.26
CAATTTGGTGTACAGGTGCACATGCCTCACGATAAA [GTGCAC_site9650]	9.38 ± 0.28
GAAAAATGTAAATACATATATGTACACAAATATATA [GTGCAC_negctrl_site557]	8.65 ± 0.37
TTAGCTCAATTTTTGGGTACACACAAATGTATAATA [XGTACX_site5003]	8.53 ± 0.3
TTTAATTCCATAAGTAAACACACAAATGCCAAAATT [CACACA_site9049]	8.8 ± 0.42
AATATTTATAAATTTACACACACACGGGTGAACATA [CACACA_site6979]	8.69 ± 0.4
ATTCTAAATTAAAATACACACATATATACATAATAT [CACACA_site2792]	8.34 ± 0.51
TTTTAAGGTGTGAAGGTGCAAAAAGGTAAATAGGAA	9.705 ± 0.021
AAAATACATAAACACACACACACACCGATATATATA [CACACA_site9186]	8.84 ± 0.5
CACAAACACCCAAACACACACACACCGACATACATA [CACACA_site4410]	8.41 ± 0.54
TAAACAGAAGCACATACACACACTCAAAAAAAAAAA [CACACA_site3051]	8.56 ± 0.6
AAAAAAAAAAAAGGCACACAAACATATGTAGACATA [CACACA_site2284]	8.64 ± 0.61
TCGTGTGTAATATTATATATATATATATAATATATA [TGCATGCA_negctrl_site289]	8.74 ± 0.26
TTCTTTTATAAAAGTAGTACAATTATATTGTAATTA [XGTACX_site2855]	8.29 ± 0.26
TCTTTTATATTGTAGAGTACATATTTTCAATATATA [XGTACX_site5586]	8.36 ± 0.23
GTGATACGCTATAGGACACACGCTTAATAATTATAA [CACACA_site1694]	8.49 ± 0.4
AAATTGTCAAAACACGCACACACATATACATAATAA [CACACA_site1743]	8.7 ± 0.32
ATCATAAATTATTATACACACAATACGTGACCTATT [CACACA_site1906]	8.71 ± 0.41

Source: the supplement of paper PMC11417369
